Test results from PubChem BioAssay AID1508624 (National Center for Advancing Translational Sciences (NCATS), 2021).
In all, about 48,000 compounds went through this assay and about 120 (0.25%) were called active. Another 4% or so got no clear call; they are omitted. Calls follow the shape of the dose curve; as a rule, active = well fitted activation curve with a large enough effect; inconclusive = small, poorly fitted or top-dose-only effect, or another doubt; inactive = no such curve, though single readings can be large or run the other way. The list shows a part of the results.

Assay: Primary qHTS for Identification of Small Molecule Activators of Huntingtin-Antisense Promoter Activity; also: nearly all actives have a fitted effect of over 55% in size
Conditions: HEK293 HTT-AS promoter firefly luciferase reporter (activity 0% = vehicle and -100% = no light), 24 h; series mostly up to 57.5 µM; activity change, positive = activation: at the top concentration
Summary of the method: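 HEK293 Fluc reporter, 2,500 cells/well, 24 h pre-culture; cpds up to 57.5 uM final, 24 h 37 degrees C; Dual-Glo, 10 min RT; normalized vehicle = 0%, zero RLU = -100%.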
For `CCc1ccc(S(=O)(=O)c2cn(C)c3cc(F)c(F)cc3c2=O)cc1`, the “activity change, positive = activation” value was inactive: 1.45%. For `COc1ccccc1CN1CCN(C2CCN(C(=O)Nc3ccccc3)CC2)C(=O)C1=O`, the “activity change, positive = activation” value was inactive: 6.26%. In the case of `Cc1ccc(NC(=O)Cn2c(-c3nonc3N)nc3ccccc32)cc1C`, the “activity change, positive = activation” value is reported as inactive: -6.75%. In the case of `NC(=O)C1CCCc2c1[nH]c1ccc(Cl)cc21` (stereo unspecified), the “activity change, positive = activation” value is reported as inactive: -28.4%. For `CCc1ccc(NC(=O)C2CCCN(S(=O)(=O)c3cccc4nonc34)C2)cc1` (stereo unspecified), the “activity change, positive = activation” value was inactive: -14.9%. In the case of `Cc1cc(C)c(NS(=O)(=O)c2cc(-c3cnc(C4CC4)o3)ccc2C)c(C)c1`, the “activity change, positive = activation” value is reported as inactive: -14.8%. For `COc1ccc(CNC(=O)C2CCN(S(=O)(=O)c3ccc4nc5c(c(C(=O)O)c4c3)CC(C)CC5)CC2)cc1` (stereo unspecified), the “activity change, positive = activation” value was inactive: -14.6%. In the case of `CN1C(=O)Cc2cc(S(=O)(=O)CCC(=O)N3CCN(c4cccc(Cl)c4)CC3)ccc21`, the “activity change, positive = activation” value is reported as inactive: -23.5%. For `COc1cccc(NS(=O)(=O)c2cc3c4c(c2)C(C)C(=O)N4CCC3)c1` (stereo unspecified), the “activity change, positive = activation” value was inactive: -7.08%. With `COc1cc(-c2noc(C3CC(=O)N(c4cc(C)ccc4C)C3)n2)cc(OC)c1OC` (stereo unspecified) the “activity change, positive = activation” value was inactive: -7.96%. In the case of `Cc1ccsc1CCN1C(=O)N(c2ccc(F)cc2)C(=O)C1CC(=O)Nc1ccccc1` (stereo unspecified), the “activity change, positive = activation” value is reported as inactive: -6.08%. With `CCOc1ccc(NC(=O)Cn2cnc3c(oc4ccccc43)c2=O)cc1` the “activity change, positive = activation” value was inactive: 10.3%. With `Cc1cc(C)n(-c2nc(C)c(C)c(=O)n2CC(=O)Nc2ccc(Cl)c(Cl)c2)n1` the “activity change, positive = activation” value was inactive: -3.92%. With `COc1ccc(-c2nnc(SCC(=O)Nc3cccc(Cl)c3C)nc2-c2ccc(OC)cc2)cc1` the “activity change, positive = activation” value was inactive: -14.1%. For `COc1ccc(NC(=O)CCNS(=O)(=O)c2ccc3c(c2)CCN3C(=O)C2CC2)cc1Cl`, the “activity change, positive = activation” value was inactive: -39.5%. In the case of `CCS(=O)(=O)c1cccc(-c2cc(C(=O)NC3CCN(C)CC3)c(C)c3[nH]c4ncc(C)cc4c23)c1`, the “activity change, positive = activation” value is reported as inactive: -37.5%. With `Cc1cc(C)c(NC(=O)Cn2nnc(C(=O)Nc3ccc(F)cc3F)c2N)c(C)c1` the “activity change, positive = activation” value was inactive: 4.7%. With `COc1ccc(-c2cc(OC(=O)c3cccc(C)c3)c3c(C)oc(C)c3c(=O)c2)cc1` the “activity change, positive = activation” value was inactive: -19.6%. In the case of `Cc1ccc(CNc2ncnc3c2cnn3-c2ccc(C)cc2C)cc1`, the “activity change, positive = activation” value is reported as inactive: -20.4%. With `CC(=O)Nc1ccc(NC(=O)c2c(C)nn(-c3ccccc3)c2-n2cccc2)cc1` the “activity change, positive = activation” value was inactive: -32.8%. With `CCc1nn2c(=O)cc(COC(=O)C3CCCCC3)nc2s1` the “activity change, positive = activation” value was inactive: -0.289%. In the case of `COc1cccc(NC(=O)c2nnn(Cc3ccc(OC)c(Br)c3)c2N)c1`, the “activity change, positive = activation” value is reported as inactive: -26.6%. In the case of `CCn1cc(C(=O)NCc2ccccc2OC)c(=O)c2cc(S(=O)(=O)N3CCCCCC3)ccc21`, the “activity change, positive = activation” value is reported as inactive: -28.9%. In the case of `CCOC(=O)c1cc(-c2ccccc2)n(CCCC(=O)Nc2ccc(C)cc2Cl)c1C`, the “activity change, positive = activation” value is reported as inactive: -30.6%. With `COC(=O)c1c(NC(=O)c2nc(SC)ncc2Cl)sc2c1CCCC2` the “activity change, positive = activation” value was inactive: -11.1%. With `CC(=O)NCc1nc2cccnc2n1Cc1ccccc1` the “activity change, positive = activation” value was inactive: -4.52%. In the case of `CC(=O)c1cc(-c2ccccc2)n(CCC(=O)NCCc2ccccc2)c1C`, the “activity change, positive = activation” value is reported as inactive: -17.5%. In the case of `Cc1nc2c(-c3ccc(F)cc3)c(C)nn2c(C)c1CCC(=O)N1CCN(c2ccc(F)cc2)CC1`, the “activity change, positive = activation” value is reported as inactive: -13.7%. With `Cc1oc(-c2cccc(Cl)c2)nc1CSc1nnc(C)n2c1cc1occc12` the “activity change, positive = activation” value was inactive: -7.65%. With `COc1ccccc1N1CCN(C(=O)Cn2cnc3sc(C)c(S(=O)(=O)N4CCC(C)CC4)c3c2=O)CC1` the “activity change, positive = activation” value was inactive: 24.1%. With `COc1ccc(Cl)cc1N(C)C(=O)Cc1noc2ccc(C)cc12` the “activity change, positive = activation” value was inactive: -7.77%. For `Cc1cccc(Cc2c(C)nc3nc(SCC(=O)NCc4ccc(F)cc4)nn3c2C)c1`, the “activity change, positive = activation” value was inactive: -30.9%. For `C/C(=C1\CCOC(=O)S1)N(C=O)Cc1cnc(C)nc1N`, the “activity change, positive = activation” value was inactive: -6.12%. In the case of `CC(C)(C)OC(=O)N1CCC(c2c(C(=O)NCc3ccccn3)cnn2-c2ccc(F)cc2)CC1`, the “activity change, positive = activation” value is reported as inactive: 12.2%. In the case of `COc1ccc2c(c1)c1c(c(=O)n(-c3cccc(C)c3)c(=O)n1CC(=O)N1CCCC1)n2C`, the “activity change, positive = activation” value is reported as inactive: -10.5%. With `Cc1cc(C)c2c(=O)cc(C(=O)Nc3ccc(S(=O)(=O)Nc4onc(C)c4C)cc3)oc2c1` the “activity change, positive = activation” value was inactive: -5.14%. With `CCC(C)NC(=O)c1ccc2c(c1)N=C(C)c1cc(C)ccc1S2` (stereo unspecified) the “activity change, positive = activation” value was inactive: -50.6%. With `Cc1ccc2c(=O)cc(C(=O)Nc3c(C(=O)c4ccccc4)oc4ccccc34)oc2c1C` the “activity change, positive = activation” value was inactive: -7.8%. For `COC(=O)[C@H](Cc1ccccc1)NC(=O)[C@@H](N)CC(=O)O`, the activity change, positive = activation was “inactive”. For `CCN1C(=O)c2ccccc2Sc2ccc(NC(=O)Cc3ccc(OC)cc3)cc21`, the “activity change, positive = activation” value was inactive: -8.71%. With `COc1ccc(-c2cc(-c3ccccc3)nc3c2COc2ccccc2-3)cc1` the “activity change, positive = activation” value was inactive: -12.4%. For `CCCn1cc(S(=O)(=O)c2cc(C)ccc2C)c(=O)c2cc(F)c(N3CCCCCC3)cc21`, the “activity change, positive = activation” value was inactive: -21.8%. In the case of `CC(C)CC(=O)Nc1nnc2n1CCS2`, the “activity change, positive = activation” value is reported as inactive: 0.501%. With `CCc1ccccc1N(c1nc(-c2ccc(OC)c(OC)c2)no1)c1nc(-c2ccc(OC)c(OC)c2)no1` the “activity change, positive = activation” value was inactive: -14.6%. With `COc1cccc(NC(=O)C(=O)NCCc2csc3nc(-c4ccccc4C)nn23)c1` the “activity change, positive = activation” value was inactive: 1.94%. With `CC1=C(c2ccc(C)c(C)c2)S(=O)(=O)N=C1N1CCC(C(=O)NCc2ccc(Cl)cc2)CC1` the “activity change, positive = activation” value was inactive: -23.6%.
